Among all 140,000 compounds or so, about 240 (0.17%) were called active. The shares of active, inactive and inconclusive entries below differ from those in the screen. Calls follow the shape of the dose curve; as a rule, active = well fitted inhibition curve with a large enough effect; inconclusive = small, poorly fitted or top-dose-only effect; inactive = no such curve, though single readings can be large or run the other way. Potencies of inconclusive entries are doubtful fits and often do not repeat.
Assay: Primary qHTS assay for inhibitors of alpha-synuclein gene (SNCA) expression; also: nearly all actives have a fitted effect of over 45% in size;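 as to activity change, negative = inhibition: plate controls were DMSO cells for no effect and cell-free wells for full effect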
Conditions: HEK-293 SNCA-luciferase knock-in, luminescence, 24 h; activity change, negative = inhibition: at 57.2 µM (top of the series) unless noted
Potency is read from the fitted curve at half-maximal effect; tags tell the direction and shape of the fitted curve.

Potency, inconclusive:
Cc1cc(C)cc(OCc2cc(=O)n3c4c(sc3n2)CCCC4)c1 6.31 µM [inhibitor, single point]
CN(C)CCN(C)[C@@H]1[C@H](O)[C@H](CO)O[C@@H]1CN(Cc1ccc(Cl)cc1)Cc1cccc(Cl)c1 39.8 µM [inhibitor, single point]
CC(=O)N1CCc2cc(S(=O)(=O)NC(Cc3ccccc3)C(=O)Nc3cccc(C)c3)ccc21 (stereo not given) 39.8 µM [inhibitor, single point]
COc1ccccc1-c1ccc(CN2CCN(c3ccc(Cl)nn3)C(=O)C2)cc1 39.8 µM [inhibitor, single point]
Cc1ccc(C(=O)N2CCC(N3C(=O)C4(CCCC4)C3c3ccccc3)CC2)s1 (stereo not given) 39.8 µM [inhibitor, single point]
Cc1ccc(CCNC(=O)NCc2noc3ccccc23)cc1 5.01 µM [inhibitor, single point]
COc1ccccc1NC(=O)CN(C)S(=O)(=O)c1ccc2c(c1)c(=O)n(C)c(=O)n2C 7.94 µM [inhibitor, single point]
Clc1cnccc1CN1CCNc2cnc(-c3ccccc3)cc2C1 20 µM [inhibitor, partial curve, poor fit]
Cc1noc(C)c1S(=O)(=O)N1CCC(C(=O)Nc2ccc(Br)cc2)CC1 31.6 µM [inhibitor, single point]
N#Cc1ccc(CN2CCC3(CC2)CN(c2ccncn2)CC3CO)cc1 (stereo not given) 20 µM [inhibitor, partial curve, poor fit]
O=C(C1CC1)N1CCCC(c2nn(-c3ccc(Cl)cc3)c(=O)[nH]2)C1 (stereo not given) 39.8 µM [inhibitor, single point]
COc1ccc(-c2nc(C(=O)Nc3ccc(C(C)=O)cc3)nn2-c2cccc(Cl)c2)cc1 14.1 µM [inhibitor, partial curve, poor fit]
COc1ccc(OC)c(-c2csc(-c3c(N)c(C(=O)c4ccccc4)n4ccccc34)n2)c1 22.4 µM [inhibitor, partial curve, poor fit]
CCCCOc1ccc(CNC(=O)C2COc3ccc(OC)cc3C2)cc1 (stereo not given) 7.08 µM [inhibitor, single point]
O=C(Nc1c(-c2ccc(F)cc2)nc2ccccn12)c1ccccc1F 3.98 µM [inhibitor, single point]
Nc1c(C(=O)c2ccc(F)cc2)sc(Nc2ccccc2F)c1S(=O)(=O)c1ccc(Br)cc1 31.6 µM [inhibitor, partial curve, poor fit]
CC1(C)CC(=O)c2c(C(F)(F)F)nn(-c3ccc(C(N)=O)c(NC4CCC(OC(=O)CN)CC4)c3)c2C1 (stereo not given) 0.482 µM [inhibitor, full curve]
O=C(NCc1ccc2c(c1)OCO2)c1csc(N2CCN(c3ccc(F)cc3)CC2)n1 39.8 µM [inhibitor, single point]
O=C(C1CCCN1C(=O)Nc1ccccc1)N1CCC(c2nc3ccncc3[nH]2)CC1 (stereo not given) 8.91 µM [inhibitor, full curve, poor fit]
Cc1c(-c2ccccc2F)[nH]c2ccc(CNC(=O)CCc3cc(=O)[nH]o3)cc12 2.82 µM [inhibitor, full curve, poor fit]
O=C(NCCc1c[nH]c2ccccc12)c1coc(COc2ccc3c(c2)OCO3)n1 11.2 µM [inhibitor, partial curve, poor fit]
Cc1nc2c(-c3ccccc3)c(C)nn2c(C)c1CCC(=O)NCc1ccc(F)cc1 39.8 µM [inhibitor, partial curve, poor fit]
Cc1c(Cl)cccc1-n1nc(C)c2c(C(=O)NCc3ccccc3)cc(C3CC3)nc21 39.8 µM [inhibitor, single point]
Cn1c(=O)oc2cc(S(=O)(=O)Nc3ccccc3O)ccc21 2 µM [inhibitor, partial curve, poor fit]
COc1cc(C(c2c(C)[nH][nH]c2=O)c2c(C)[nH][nH]c2=O)ccc1OC(=O)c1cccc(C)c1 3.16 µM [inhibitor, single point]
CCc1ccc(N2C(=O)CSC23C(=O)N(Cc2ccc(C)cc2)c2ccccc23)cc1 (stereo not given) 11.2 µM [inhibitor, partial curve, poor fit]
CCc1cccc(NC(=O)C2CCCN(S(=O)(=O)c3cccs3)C2)c1 (stereo not given) 11.2 µM [inhibitor, single point]
COc1ccccc1N1CCN(C(CNC(=O)C(=O)NCc2ccc(C)cc2)c2cccnc2)CC1 (stereo not given) 39.8 µM [inhibitor, single point]
COc1ccc(C(=O)N2CCN3C(=O)N(C4CCOCC4)C[C@H]3C2)cc1 7.08 µM [inhibitor, single point]
Cc1ccc(C2=CC(c3ccccc3F)n3c(nc4ccccc43)N2)cc1C (stereo not given) 17.8 µM [inhibitor, single point]
CC(c1ccc(-c2ccc(N(C)C)nn2)cc1)N(C)C (stereo not given) 1.58 µM [inhibitor, full curve, poor fit]
Cc1ccc(NC(=O)Nc2cc(C(F)(F)F)ccc2F)cc1Nc1ccc2c(c1)NC(=O)C2=Cc1ccc[nH]1 1.36 µM [inhibitor, full curve, poor fit]
CN1CC[C@H](c2c(O)cc(O)c3c(=O)cc(-c4ccccc4Cl)oc23)[C@H](O)C1 2.82 µM [inhibitor, full curve, poor fit]
COc1ccc(-n2c(=O)c3c4c(sc3n(Cc3ccccc3Cl)c2=O)CCC4)c(OC)c1 7.08 µM [inhibitor, single point]
COc1cccc(CNC(=O)CN(C)S(=O)(=O)c2ccc3[nH]c4c(c3c2)CCCC4)c1 14.1 µM [inhibitor, single point]
Cc1ccc(-c2nc(C(=O)NCc3cc(F)cc(F)c3)no2)cc1 39.8 µM [inhibitor, single point]
COc1ccc(OC)c(NC(=O)Cn2c(=O)c(-c3noc(C)n3)c3n(c2=O)CCCC3)c1 14.1 µM [inhibitor, partial curve, poor fit]
N#Cc1cccc(C(=O)NC2CCCN(c3cc(-c4ccc(Cl)cc4)[nH]n3)C2)c1 (stereo not given) 31.6 µM [inhibitor, single point]
COc1ccccc1C(=O)Nc1c(C(=O)N(C)Cc2ccccc2)sc2nc(C)c(Cl)c(C)c12 39.8 µM [inhibitor, single point]
CCCCOc1ccc(CN2C(=O)C(=O)c3cc(Br)cc(C)c32)cc1OC 39.8 µM [inhibitor, single point]
Cc1cncc(-c2ccc(S(N)(=O)=O)cc2F)c1 22.4 µM [inhibitor, single point]
O=C(Nc1ccccc1CCc1ccccn1)C1CCN(c2cnn(Cc3ccccc3)c(=O)c2)C1 (stereo not given) 3.16 µM [inhibitor, single point]

Potency, active:
O=c1c(-c2cccs2)nc2cnc(N3CCNCC3)nc2n1Cc1cccs1 17.8 µM

Activity change, negative = inhibition, inactive:
COc1ccccc1-c1nc(N2CCOCC2)cc2c1CN(c1ccccc1)C2=O 2.27% [at 87.6 µM]
O=C(NCc1ccc(Cl)cc1)c1nc2sccn2c1-c1ccncc1 39.1%
CCc1ccc(-n2c(=O)c3c4c(sc3n(Cc3ccc(C)cc3)c2=O)CCC4)cc1 6.85%
S=C(NC1CCCCC1)N[C@H]1CO[C@H]2[C@@H]1OC[C@@H]2n1cc(-c2ccccn2)nn1 -6.94% [at 87.6 µM]
O=C(Nc1ccccc1Cl)C1CCCN(Cc2cccc(-c3ccc(F)cc3F)c2)C1 (stereo not given) -28.1%
NCc1ccc(-c2cccc(O)c2)cc1 -1.2% [at 87.6 µM]
Cc1ccc(NC(=O)c2cc(-c3ccc[nH]3)n[nH]2)cc1F 50.5%
O=C(NCc1cccc(Cl)c1)c1cn2cc(-c3ccc(C(F)(F)F)cc3)sc2n1 -16.5%
CS(=O)(=O)N1CCN2C(=O)N(Cc3cccnc3)C[C@H]2C1 -9.14% [at 87.6 µM]
CC(=O)N1Cc2ccccc2CC2(CCCN(C)C2)C1 (stereo not given) 7.62% [at 87.6 µM]
CC1(C(=O)NC2CCOCC2)COCc2cnc(Nc3ccccc3)nc21 (stereo not given) -28% [at 87.6 µM]
C=CCNC(=O)c1cnn2c1CN(C(C)=O)CC2 2.66% [at 87.6 µM]
O=C(NCc1ccccc1F)c1ccc(-c2ccc(N3CCSCC3)nc2)cc1 40.2%
O=C(OCc1ccccc1)N1CCOCC12CCN(Cc1ccncc1)CC2 -12.6% [at 87.6 µM]
COc1ccc(-c2nc3cc(C)ccn3c2NC(=O)c2ccc(C)c(C)c2)cc1 23%
C[C@@H]1C(=O)O[C@H]2[C@H]1CC[C@@]1(C)Cc3sc(Nc4ccc(O)cc4)nc3[C@@H](C)[C@H]21 -29.9% [at 87.6 µM]
O=C(c1ccccc1)N1CCc2nc(-c3ccccc3)nc(-c3ccc(Cl)cc3)c2C1 -9.14%
Cc1ccc(OCCC2CCN(C(=O)C(C)C)C2)cc1 (stereo not given) 36.8%
O=C(NCc1ccccc1)c1cn(C2CN(C(=O)Cc3ccccc3)C2)nn1 -11.5%
CC(=O)Nc1ccc(C(=O)N2CCN(C3CCNCC3)C(=O)C2)cc1 -14.7%
COCC(=O)N[C@@H]1CN(C(=O)CCCc2ccccc2)CC[C@@H]1c1nc(C)no1 -15.5%
CCCOC(=O)CSc1ncnc2sc3c(c12)CCC(C)C3 (stereo not given) 58.7%
